# Experimental data as given in ChEMBL document CHEMBL4888484, “Replenishing the malaria drug discovery pipeline: Screening and hit evaluation of the MMV Hit Generation Library 1 (HGL1) against asexual blood stage Plasmodium falciparum ,using a nano luciferase reporter read-out” (2022).
# The whole screen tested about 150,000 compounds, of which about 540 (0.36%) showed an effect of 50% or more. The list shows a part of the results.
# Tested on: Plasmodium falciparum
# Experiment: Primary screen in NF54 nanoGlo assay, in single point, at 2uM, 72h; a lower Z score goes with more inhibition
# Assay type: functional, Erythrocyte
# Conditions: timepoint 72 hour
SMILES,% Inhibition [%],Z score
O=C(NCc1ccccc1)N1CCOC2(CCS(=O)(=O)CC2)C1,-18,1.91
Cc1c(C)c(C(=O)NCc2ccco2)n(Cc2ccc(F)cc2)c1C,-5,0.86
O=C(NCc1nnc2n1CCOC2)[C@]1(c2ccccc2)CCCO1,-16,2.18
Cc1ccc(CN2CCN(C(=O)c3c[nH]c(=O)c(Cl)c3)C[C@@H]2CCO)o1,-4,0.56
CC(C)c1cc(C(=O)N2CCC[C@@H]2C(=O)O)n[nH]1,-6,0.65
CC1CCN([C@@H](CNC(=O)c2ncoc2-c2cccs2)C(C)C)CC1,2,-0.3
Cc1nc2c(c(N3CCN(CC(F)(F)CO)CC3)n1)CCCC2,-6,1.01
CC1CC(C)CC(C(=O)N(C)Cc2nnc3c(=O)n(C)ccn23)C1 (stereo not given),-7,0.87
CCN1CCN(C2=NCCN2S(=O)(=O)c2ccc(C)cc2C)CC1,-16,1.85
CC(C)Oc1ccc(F)cc1S(=O)(=O)Nc1ccn(C)c(=O)n1,8,-1.6
Cc1ccc2nc(N3CCC(C(=O)NCCc4cccs4)CC3)[nH]c2c1,4,-0.74
C[C@H]1CCCCN1c1nnc(C(=O)NCCN2CCCCC2)c2ccccc12,-16,1.95
CC(C)[C@@H](CO)NCc1csc(C2CCCC2)n1,-9,1.02
COCCn1c(N)c(N(Cc2ccccc2)C(=O)c2c(C)noc2C)c(=O)[nH]c1=O,10,-1.36
Cn1c(=O)n(CC(=O)N2CCO[C@H]3COCC[C@H]32)c2ccccc21,-9,1.48
CC(=O)N1CCN(C(=O)c2cccc(-c3nc4ccccc4o3)c2)CC1,-14,1.8
Cc1nn(C)cc1C(=O)N1CCC(c2nnc(Cn3cccn3)n2C)CC1,-16,3.09
NC(=O)c1ccc(NCC2(Cn3ccnc3)CC2)nc1,-9,1.33
Cn1ncc2c(NCc3ccccc3)nc(N3CCC(N4CCCCC4)CC3)nc21,2,-0.39
CC1CN(CC(=O)NC2CCCC(C)C2C)CC(C)O1 (stereo not given),-3,0.38
COc1ccc(-c2csc(-n3ncc(-c4ccccn4)c3N)n2)cc1,-6,0.72
CCCN1C(=O)N[C@@H](CC(=O)N(C)Cc2nc3ccc(F)cc3[nH]2)C1=O,-18,1.59

SMILES,% Inhibition [%],Z score
O=C1COC2(CCN(C(=O)OCc3ccccc3)CC2)CN1,-29,3.46
CCC(C)(C)NC(=O)COc1cccc(C)c1,-2,0.39
c1csc(-c2noc(-c3cscn3)n2)c1,-5,1
CC(CN1CCN(C)CC1)NC1CCCCC1C1CCCCC1 (stereo not given),-1,0.12
O=C1CN(CCCO)C(=O)CCc2ccc(cc2)Oc2cccc(c2)CO[C@H]2CCN(C(=O)CN3CCCCC3=O)C[C@@H]2N1,-6,1.12
COc1cc(Br)ccc1CCCNC(=O)[C@H]1CCOC1,-2,0.41
CS(=O)(=O)N(CCN1CCCCC1)C1CN(C(=O)C2CCCCC2)C1,-7,0.97
Cc1ccccc1C(=O)Nc1cc(-c2cccs2)no1,-6,1.01
CN1CCC[C@H](CN(C)C(=O)c2cc(Cn3ccc4ccccc43)[nH]n2)C1,-1,0.18
C#CCNC(=O)C1CC2CCCCC2N1S(=O)(=O)c1ccc2c(c1)OCCO2 (stereo not given),-6,0.93
C[C@@H](CNS(C)(=O)=O)OC(=O)CCc1cccc(N(C)C)c1,-10,1.84
Cc1nc(C2CC(O)C2)cc(N2CCN(CCN(C)C)CC2)n1 (stereo not given),-7,0.65
Cn1c(CNCCn2cccn2)nc2ccccc21,-6,0.6
CN(CCC1CCOCC1)Cc1cc(Cl)cc(S(N)(=O)=O)c1,-6,0.86
OCC1(CNCc2ccc(Cl)o2)CCOCC1,-6,0.66
O=C(NC1CCCCCC1)c1cscn1,-3,0.4
O=S(=O)(c1ccc2c(c1)CCC2)N1CC[C@H](Cc2nncn2CC2CC2)C1,-15,2.62
CN(Cc1ccccc1)S(=O)(=O)N1C[C@H](O)[C@@H](F)C1,3,-0.63
O=C(c1cccs1)N1CC[C@H](Cc2nnc(-c3ccccc3)o2)C1,-16,2.26
CN(C)CCNC(=O)c1cccn1-c1nnc(N2CCCCCC2)s1,-6,0.73
C[C@H]1CCCCN1C(=O)c1ccc(NCc2ncnn2C)cc1Cl,-24,3.44
CC(C)c1ccc(C(=O)N2CCC3(CCCN(C)[C@@H]3C(=O)N(C)C)CC2)cc1,-11,2.04

SMILES,% Inhibition [%],Z score
COC(=O)N1CCc2ccc(F)cc2[C@@H]1C(=O)Nc1cccc(C(C)=O)c1,-7,1.27
O=c1n(Cc2ccccc2)c2ccncc2n1Cc1ccc(CO)cc1,-11,1.29
C[C@H](OC1CCCCCC1)C(=O)Nc1nc(-c2cnn(C)c2)cs1,0,0.02
N#Cc1nc(C2CC2)oc1N1CCN(C(=O)CCc2ccco2)CC1,-7,1.41
CN(C(=O)OCC1CCCCC1)c1ccn(C)n1,4,-0.5
Cn1nc(C(=O)Nc2cccc3c2OCCCO3)cc1C(F)F,-7,1.12
O=C(C[C@@H]1C[C@H]2O[C@H](CNC(=O)Nc3cccs3)[C@@H](O)[C@H]2O1)NCc1ccc(F)cc1,-11,1.94
CN(C)S(=O)(=O)c1ccsc1C(=O)N1CC(C2CC2)C1C1CC1 (stereo not given),-8,0.9
O=C(Cc1noc(CCCC2CC2)n1)Nc1ccc2c(c1)OCCO2,-10,1.33
CC(C)NC(=O)[C@@H](NS(=O)(=O)c1ccccc1F)C(C)C,-3,0.38
CC1(C(=O)N[C@H]2CCN(c3cc(N4CCOCC4)cnn3)C2)CCCCC1,-5,0.7
O=C(NC[C@H]1CCCCN(C(=O)C2CC=CC2)C1)C1CC=CC1,-6,1.12
CCOCC(O)CN(Cc1ccc(F)cc1)CC1CC(c2ccccc2)=NO1 (stereo not given),-9,0.84
Cc1cccc2c1OCC[C@@H]2NC(=O)NCc1cscn1,-3,0.46
CC(C)Oc1ccccc1CN1CCC[C@](C)(COc2ccncc2)C1,2,-0.23
O=C(NCc1ccco1)c1csc(-c2ccnc(N3CCOCC3)c2)n1,0,0
CCCCc1nnc(NCc2snc(OC)c2Br)o1,-10,1.06
O=C(N[C@H]1C[C@H](c2cc(N3CCCC3)ncn2)C1)c1cc(CO)ccn1,-15,2.89
C[C@H](Nc1ccc(Oc2ccccc2C#N)c(F)c1)c1nnnn1C,0,-0.03
COc1cncc(CCC(=O)NCCC(C)(C)C2CC2)c1,-8,1.54
Cc1nc(N)sc1C(=O)NCCc1cnn(C)c1,-11,1.92
O=C(O)CC[C@@H]1CN(Cc2ccc(Cl)cc2)CC[C@@H]1N1CCCC1,6,-0.7

SMILES,% Inhibition [%],Z score
CCC(CC)C(=O)NCCc1ccc(OC)cc1,0,-0.05
COc1ccc(S(=O)(=O)NCc2cc(C)ncn2)cc1,8,-0.99
Cc1cnc(Cn2ccc3ccn(Cc4ccccc4F)c3c2=O)o1,-2,0.42
NC(=O)c1cncc(N2CCC(c3[nH]ncc3Cc3ccccc3)CC2)n1,-5,0.64
Cc1ccnc2ccc(C(=O)N[C@H]3CCc4nnnn4CC3)cc12,9,-1.39
C=CCNc1nc(CC)nc2c1CCN(C(=O)c1cn(C)nc1C)CC2,-12,2.14
CN(C)S(=O)(=O)NCCOc1ccc(F)cc1,2,-0.22
O=C(CCc1ccccc1)N1CCC[C@H](c2nnc3n2CCN(C2CCCC2)C3)C1,-10,1.84
CCOc1ncccc1C(=O)N(Cc1ccncc1)C1CCN(C)CC1,-3,0.4
Cc1ccccc1OCCCNC(=O)c1c(C)c(C)n[nH]c1=O,-7,0.59
Cc1ccc(CC(=O)N(CC(F)(F)F)C(C)C)cn1,-1,0.2
COCCN1CCN2C(=O)[C@H](Cc3ccccc3)N(C(=O)Cn3ccc(C)n3)C[C@H]2C1=O,-5,0.42
Cc1ccc(Br)c(C(=O)Nc2nccc(C)c2C2CC2)n1,-8,1.43
COc1ccc2cc(C(=O)N3C[C@H]4C[C@H](O)[C@@H](O)C[C@H]4C3)n(C)c2c1,-14,2.2
COc1ccccc1CNC(=O)C1CC2CCC1C2 (stereo not given),-12,1.1
COc1ccc(-n2cccn2)cc1S(=O)(=O)N1CCN(C)C(=O)[C@@H]1C,-11,1.07
COc1ccccc1COC1CCN(Cc2ccc(C#N)o2)CC1,-1,0.11
Cc1ccc(CN2CCN(CC(=O)Nc3cc(C)on3)C(=O)C2=O)cc1,0,-0.03
COC[C@H]1[C@H](NS(=O)(=O)Cc2cc(F)ccc2Cl)[C@H]2CCO[C@H]21,-2,0.34
